Among all 39,000 compounds or so, about 220 (0.56%) showed activity. This is one part of the list.
System: Escherichia coli K-12 BW25113
Assay: relative growth (OD600 normalised to plate interquartile mean) (fraction); higher = less growth inhibition, active = 0.2 or less
Conditions: 50 µM; LB; incubation time: overnight (16-24 h)
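Note: static incubation at 37 °C against the wild-type strain, values averaged over two biological replicates.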

Row | SMILES | relative growth
1 | C[C@H](CO)N1C[C@H](C)[C@@H](CN(C)S(C)(=O)=O)Oc2ccc(NS(=O)(=O)c3ccc(Cl)cc3)cc2CC1=O | inactive: 0.988
2 | COc1ccc(NC(=O)Nc2ccc3c(c2)C(=O)N([C@H](C)CO)C[C@@H](C)[C@@H](CN(C)S(=O)(=O)c2ccc(OC)cc2)OCCCC[C@H](C)O3)cc1 | inactive: 1.02
3 | Cc1cc(O)cc(=O)[nH]1 | inactive: 0.962
4 | C[C@@H]1CCCCO[C@H](CN(C)C(=O)c2ccccc2)[C@@H](C)CN([C@H](C)CO)C(=O)c2cc(NC(=O)c3ccccc3)ccc2O1 | inactive: 0.974
5 | NCC[C@@H]1CC[C@@H](NC(=O)Nc2ccc(F)cc2)[C@H](CO)O1 | inactive: 0.962
6 | Cc1ccc(S(=O)(=O)N(C)C[C@@H]2Oc3c(NC(=O)Nc4ccc(C(F)(F)F)cc4)cccc3C(=O)N([C@H](C)CO)C[C@@H]2C)cc1 | inactive: 0.955
7 | CC(C)NC(=O)Nc1ccc2c(c1)C(=O)N([C@@H](C)CO)C[C@H](C)[C@H](CN(C)C(=O)Nc1ccc(F)cc1)OCCCC[C@@H](C)O2 | inactive: 1
8 | CCCCc1cc(CCCC)n2nc(-c3ccccc3)cc2n1 | inactive: 1.04
9 | Nc1nc(=O)c2nc(CNc3ccc(C(=O)N[C@@H](CCC(=O)O)C(=O)O)cc3)cnc2[nH]1 | inactive: 0.99
10 | C[C@@H]1CN([C@H](C)CO)C(=O)c2cccc(NC(=O)Nc3ccc4c(c3)OCO4)c2O[C@H]1CN(C)Cc1ccc(Cl)c(Cl)c1 | inactive: 1
11 | C[C@@H]1CN([C@H](C)CO)C(=O)Cc2cc(NC(=O)C3CC3)ccc2O[C@@H]1CN(C)C(=O)Nc1ccc2c(c1)OCO2 | inactive: 0.981
12 | CN1Cc2c(Cl)cc(Cl)cc2[C@H](c2cccc(S(=O)(=O)NCCOCCOCCNC(=O)NCCCCNC(=O)NCCOCCOCCNS(=O)(=O)c3cccc([C@@H]4CN(C)Cc5c(Cl)cc(Cl)cc54)c3)c2)C1 | inactive: 0.963
13 | CO/N=[N+](\[O-])NC(C)C | inactive: 0.985
14 | COc1ccc(NC(=O)N(C)C[C@@H]2OCCCC[C@H](C)Oc3ccc(NC(=O)Nc4c(C)noc4C)cc3C(=O)N([C@H](C)CO)C[C@@H]2C)cc1 | inactive: 1.02
15 | C[C@H]1CCCCO[C@H](CN(C)Cc2ccccc2)[C@@H](C)CN([C@@H](C)CO)C(=O)c2cc(NS(=O)(=O)c3cccs3)ccc2O1 | inactive: 0.979
16 | CCN(CC)C(=O)c1cccc(C)c1 | inactive: 0.981
17 | CC(C)NC(=O)Nc1cccc2c1O[C@@H](CN(C)Cc1ccc(-c3ccccc3)cc1)[C@@H](C)CN([C@H](C)CO)C2=O | inactive: 0.999
18 | COc1ccc(NC(=O)N(C)C[C@H]2OCCCC[C@H](C)Oc3ccc(NC(=O)Nc4ccc(C(F)(F)F)cc4)cc3C(=O)N([C@@H](C)CO)C[C@H]2C)cc1 | inactive: 1.02
19 | C[C@@H]1CCCCO[C@@H](CN(C)C(=O)Nc2ccc(C(F)(F)F)cc2)[C@H](C)CN([C@H](C)CO)C(=O)c2cc(NC(=O)Nc3ccc(F)cc3)ccc2O1 | inactive: 1.02

Row | SMILES | relative growth
20 | C[C@H](CO)N1C[C@H](C)[C@H](CN(C)Cc2ccc3c(c2)OCO3)Oc2c(NS(=O)(=O)c3cn(C)cn3)cccc2C1=O | inactive: 0.976
21 | COc1ccc(S(=O)(=O)N(C)C[C@@H]2Oc3ccc(NC(=O)CCCN(C)C)cc3CC(=O)N([C@H](C)CO)C[C@@H]2C)cc1 | inactive: 1
22 | COc1ccc(C#Cc2ccc3c(c2)[C@]2(C(=O)N3)[C@H](c3ccc(O)cc3)N3[C@H](c4ccccc4)[C@H](c4ccccc4)OC(=O)[C@H]3[C@@H]2C(=O)NC[C@H](O)c2ccccc2)cc1 | inactive: 1.03
23 | CCN(CC)C(=O)c1cccnc1 | inactive: 0.955
24 | COc1ccc(NC(=O)N(C)C[C@@H]2OCCCC[C@H](C)Oc3ccc(NS(=O)(=O)c4cccs4)cc3C(=O)N([C@H](C)CO)C[C@H]2C)cc1 | inactive: 0.941
25 | C[C@@H]1CCCCO[C@@H](CN(C)C(=O)Nc2ccc(F)cc2)[C@@H](C)CN([C@H](C)CO)C(=O)c2cc(NC(=O)C3CCCCC3)ccc2O1 | inactive: 1.04
26 | COc1ccccc1NC(=O)N(C)C[C@H]1Oc2cc(Br)ccc2S(=O)(=O)N([C@@H](C)CO)C[C@H]1C | inactive: 1
27 | CC(C)NC(=O)N(C)C[C@@H]1Oc2ccc(NS(=O)(=O)c3cn(C)cn3)cc2CC(=O)N([C@H](C)CO)C[C@H]1C | inactive: 0.991
28 | C[C@@H]1CN([C@H](C)CO)C(=O)c2cc(NS(=O)(=O)c3ccccc3)ccc2O[C@@H](C)CCCCO[C@H]1CN(C)C(=O)Nc1ccccc1 | inactive: 0.987
29 | O=C(CCNc1n[nH]c(=O)[nH]c1=O)N1CCOCC1 | inactive: 0.98
30 | C[C@@H]1CN([C@@H](C)CO)C(=O)c2cc(NS(C)(=O)=O)ccc2O[C@@H](C)CCCCO[C@H]1CN(C)Cc1ccncc1 | inactive: 1.01
31 | C/C=C/c1ccc2c(c1)O[C@H](CN(C)C(=O)c1ccc3c(c1)OCO3)[C@@H](C)CN([C@@H](C)CO)S2(=O)=O | inactive: 1.02
32 | CC(C)(C)[S@](=O)N1Cc2cc(C(=O)NCc3ccc4c(c3)OCO4)nc(-c3cccc(-c4cccnc4)c3)c2[C@@H]1CCO | inactive: 1
33 | COc1ccc(NC(=O)N(C)C[C@@H]2Oc3ccc(NC(=O)Cn4cnnn4)cc3CC(=O)N([C@@H](C)CO)C[C@@H]2C)cc1 | inactive: 1.03
34 | CCC(C=CC(C)C1CCC2C3CC=C4CC(O)CCC4(C)C3CCC12C)C(C)C (stereo not drawn) | inactive: 1.17
35 | C[C@@H]1CN([C@@H](C)CO)C(=O)Cc2cc(NS(=O)(=O)c3cccs3)ccc2O[C@@H]1CN(C)CC1CC1 | inactive: 1.02
36 | C[C@H](CO)N1C[C@H](C)[C@@H](CN(C)C(=O)CN(C)C)Oc2cc(C#CC(C)(C)O)ccc2S1(=O)=O | inactive: 1.01
37 | C[C@@H]1CCCCO[C@H](CN(C)S(=O)(=O)c2ccc(F)cc2)[C@@H](C)CN([C@@H](C)CO)C(=O)c2cc(NC(=O)Cc3ccccc3)ccc2O1 | inactive: 1.04
38 | C[C@@H]1CN([C@H](C)CO)C(=O)c2cc(NC(=O)C3CCCCC3)ccc2O[C@@H](C)CCCCO[C@@H]1CN(C)Cc1ccc(Cl)c(Cl)c1 | inactive: 0.854
